For 153 variants, enrichment ratio results are on record in a collection of fitness landscapes (doi:10.1126/science.1257360).

The labels stand for the following.
B1: PhoQ; a variant is named by its letters at X, in order, P23837 (parent)
chain: MKKLLRLFFPLSLRVRFLLATAAVVLVLSLAYGMVALIGYSVSFDKTTFRLLRGESNLFYTLAKWENNKLHVELPENIDKQSPTMTLIYDENGQLLWAQRDVPWLMKMIQPDWLKSNGFHEIEADVNDTSLLLSGDHSIQQQLQEVREDDDDAEMTHSVAVNVYPATSRMPKLTIVVVDTIPVELKSSYMVWSWFIYVLSANLLLVIPLLWVAAWWSLRPIEALAKEVRELEEHNRELLNPATTRELTSLVRNLNRLLKSERERYDKYRTTLTDLTHSLKTPLXXLQXXLRSLRSEKMSVSDAEPVMLEQISRISQQIGYYLHRASMRGGTLLSRELHPVAPLLDNLTSALNKVYQRKGVNISLDISPEISFVGEQNDFVEVMGNVLDNACKYCLEFVEISARQTDEHLYIVVEDDGPGIPLSKREVIFDRGQRVDTLRPGQGVGLAVAREITEQYEGKIVAGESMLGGARMEVIFGRQHSAPKDE

The list shows a part of the results. Bounds are passed on as bounds.

In this assay the parent is B1. The assay can be described thus: enrichment ratio after two sorts for PhoP signalling (ratio (wild type AVST 3.29)); higher = more functional. The following applies: with PhoP (E. coli).
On to ASRE, for which the enrichment ratio is at most 0.25.
Next, VLAV: at most 0.25; DIWI: at most 0.25; MVPD: at most 0.25.
Turning to VGKS, the enrichment ratio is at most 0.25.
In the case of YKCR, the enrichment ratio is at most 0.25.
For YAAV the value was at most 0.25.
With MVLC, the enrichment ratio is 4.03.
HRPD: the enrichment ratio was at most 0.25.
Next, GQNH: at most 0.25; HNVL: at most 0.25; PCDW: at most 0.25.
For the variant YMLR, the enrichment ratio is at most 0.25.
For PWTA the value was at most 0.25.
Consider PWST, for which the enrichment ratio was at most 0.25.
Regarding VTHC, the enrichment ratio was at most 0.25.
As to KCPT, the enrichment ratio is at most 0.25.
As for FSEA, the enrichment ratio was at most 0.25.
Regarding SSVH, the enrichment ratio was found to be 14.4.
For SMIV, the enrichment ratio was at most 0.25.
Next, KRVE: at most 0.25; QRGC: at most 0.25.
Consider IKRN, for which the enrichment ratio was at most 0.25.
For MNNS, the enrichment ratio was at most 0.25.
For PCME the value was at most 0.25; for IENE, at most 0.25; for GNFT, at most 0.25.
For IWCW, the enrichment ratio was at most 0.25.
For NPNK the value was at most 0.25; for RAME, at most 0.25.
With RCVR, the enrichment ratio is at most 0.25.
CLYI: the enrichment ratio is at most 0.25.
As for MYYY, the enrichment ratio was at most 0.25.
As for DIDA, the enrichment ratio was at most 0.25.
Next, PTYM: at most 0.25.
As to DCNN, the enrichment ratio is at most 0.25.
For FIQE, the enrichment ratio is at most 0.25.
As for WWTS, the enrichment ratio is at most 0.25.
As to VSML, the enrichment ratio was 15.7.
Next, AACE: 6.4; VPHT: at most 0.25.
Regarding KGDC, the enrichment ratio was at most 0.25.
As for KYSV, the enrichment ratio is at most 0.25.
Next, IMDL: at most 0.25.
As to FQIA, the enrichment ratio was at most 0.25.
Next, EMKD: at most 0.25.
Turning to AQIH, the enrichment ratio was at most 0.25.
On to SSED, for which the enrichment ratio was at most 0.25.
ENLP: the enrichment ratio is at most 0.25.
FCMR: the enrichment ratio was at most 0.25.
KIAQ: the enrichment ratio is at most 0.25.
Consider CSAL, for which the enrichment ratio was at most 0.25.
As for VQAY, the enrichment ratio is at most 0.25.
Turning to MDCE, the enrichment ratio was at most 0.25.
Turning to GIVE, the enrichment ratio is at most 0.25.
Consider SRCN, for which the enrichment ratio was at most 0.25.
As for LGSS, the enrichment ratio was at most 0.25.
As to FKIL, the enrichment ratio is at most 0.25.
For the variant ADYQ, the enrichment ratio is at most 0.25.
For RKGV the value was at most 0.25.
On to AEAL, for which the enrichment ratio came out at 18.2.
As for EGWH, the enrichment ratio is at most 0.25.
Turning to PIAD, the enrichment ratio was at most 0.25.
Consider TQRA, for which the enrichment ratio was at most 0.25.
As to SSTN, the enrichment ratio was 7.6.
As to QSSF, the enrichment ratio was 0.995.
Next, SLFI: at most 0.25; WLKS: at most 0.25.
Consider KHHN, for which the enrichment ratio was at most 0.25.
Take LNHK: the enrichment ratio is at most 0.25.
For the variant YVGP, the enrichment ratio is at most 0.25.
Consider RDLL, for which the enrichment ratio is at most 0.25.
Regarding VLVP, the enrichment ratio was at most 0.25.
Regarding IQEK, the enrichment ratio was at most 0.25.
Consider NIVE, for which the enrichment ratio was at most 0.25.
For SPFD the value was at most 0.25; for GCCK, at most 0.25.
As to WRHY, the enrichment ratio is at most 0.25.
For QVDV, the enrichment ratio was at most 0.25.
As for VWQC, the enrichment ratio was at most 0.25.
For AMLT the value was at most 0.25.
As for WMGV, the enrichment ratio was at most 0.25.
In the case of QAAV, the enrichment ratio was at most 0.25.
For EASF the value was at most 0.25; for HELG, 12.3.
On to RSPW, for which the enrichment ratio is at most 0.25.
With SIWC, the enrichment ratio was at most 0.25.
Consider VFDK, for which the enrichment ratio is at most 0.25.
TNYG: the enrichment ratio was determined as 10.7.
Take ANFQ: the enrichment ratio was at most 0.25.
For the variant LVML, the enrichment ratio came to 0.532.
Consider ESVH, for which the enrichment ratio was at most 0.25.
On to MSVR, for which the enrichment ratio was found to be 0.327.
For the variant EMRW, the enrichment ratio was at most 0.25.
Turning to VSLG, the enrichment ratio amounted to 4.33.
As for YHIK, the enrichment ratio was 1.44.
Consider RFQE, for which the enrichment ratio is at most 0.25.
FDTY: the enrichment ratio is at most 0.25.
On to PMMH, for which the enrichment ratio was at most 0.25.
With VFGR, the enrichment ratio is at most 0.25.
Next, NKLW: at most 0.25; PTGF: at most 0.25.
Take LSIG: the enrichment ratio is at most 0.25.
For PHMY, the enrichment ratio was at most 0.25.
Regarding FYTE, the enrichment ratio was at most 0.25.
For PRCT the value was at most 0.25.
On to KDYV, for which the enrichment ratio is at most 0.25.
In the case of IYKK, the enrichment ratio is at most 0.25.
For EYNF the value was at most 0.25.
Next, YSWI: at most 0.25; QDRW: at most 0.25; FDEY: at most 0.25.
For the variant YDDL, the enrichment ratio is at most 0.25.
As for FMHP, the enrichment ratio is at most 0.25.
TLHM: the enrichment ratio is at most 0.25.
For LWWC the value was at most 0.25.
For the variant KSGW, the enrichment ratio is at most 0.25.
Next, THPA: at most 0.25; HPMG: at most 0.25; GMKY: at most 0.25.
Take GWQT: the enrichment ratio was at most 0.25.
For SSEE, the enrichment ratio is at most 0.25.
On to NTLW, for which the enrichment ratio is at most 0.25.
As for MLVE, the enrichment ratio was at most 0.25.
With DVET, the enrichment ratio is at most 0.25.
Next, VKRL: at most 0.25; QPKK: at most 0.25.
Consider TAPT, for which the enrichment ratio was at most 0.25.
Turning to PFML, the enrichment ratio is at most 0.25.
In the case of IQQV, the enrichment ratio is at most 0.25.
On to HFVH, for which the enrichment ratio was at most 0.25.
Take AGCT: the enrichment ratio turned out to be 5.91.
For YTRL the value was at most 0.25; for FHNP, at most 0.25.
As for LLHD, the enrichment ratio was at most 0.25.
Regarding YFNQ, the enrichment ratio was at most 0.25.
Consider AVYK, for which the enrichment ratio is at most 0.25.
Next, EHAQ: at most 0.25; MPGQ: at most 0.25; MIHP: at most 0.25.
As to YDKQ, the enrichment ratio was at most 0.25.
For FPWK, the enrichment ratio is at most 0.25.
For the variant GVFF, the enrichment ratio is at most 0.25.
QGLS: the enrichment ratio stood at 3.82.
For the variant DWVH, the enrichment ratio is at most 0.25.
Next, WEVG: at most 0.25.
FRYC: the enrichment ratio is at most 0.25.
For the variant DYCS, the enrichment ratio was at most 0.25.
Consider KKAR, for which the enrichment ratio was at most 0.25.
For VCQY, the enrichment ratio was at most 0.25.
On to YFMC, for which the enrichment ratio was at most 0.25.
Turning to WFWH, the enrichment ratio was at most 0.25.
For the variant VHFG, the enrichment ratio was at most 0.25.
